# Test results taken from the supplement of paper PMC8728848.
# The list shows a part of the results.
# B1: Epa23 (Candida glabrata) (protein)
# chain: MGSSHHHHHHSSGLVPRGSHMIPNPFEGTINNFPSGCSPNHGLYNRGLTMELYNYSYIHPQSIQSYFNTSTLKKMEKGQCWDPSYLDVNYPRTGYKTHNRFAKVNGIDGILDFEFNPTRSCVPSKGQLPQNYNYPLQFTLSNFTMLLYGYFKPKVTAKHTFTIFADDLLFLNFGAGNAFDCCQQQDTIDDFGNYQAYALWGSDTQQNTLTVNLDANIYYPIRMFYNNRDFKGALNMYFTTDESNTKINDFSGYLFNIPDSSEGCPAHISYETECGNVSG
# Tests used:
# Test in all cases: glycan array binding signal (z-score within array); higher = stronger binding
# Conditions in all cases: glycan notation: IUPAC condensed, linker removed
# [1] = target: Neu5Ac(a2-3)Gal6S(b1-4)[Fuc(a1-3)]GlcNAc
# Procedure, shortened: (§1)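 The Consortium for Functional Glycomics database supplied 3228 glycan arrays, of which those lacking an available protein sequence were dropped. The binding signal, a within-array Z-score, was averaged across arrays of the same protein sequence and across linkers. Negative scores can be read as non-binding.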
# Neu5Ac(a2-3)GalNAc = target: Neu5Ac(a2-3)GalNAc
# Procedure, shortened: as §1
# [2] = target: Neu5Ac(a2-3)GalNAc(b1-4)GlcNAc
# Procedure, shortened: as §1
# [3] = target: Neu5Ac(a2-3)[GalNAc(b1-4)]Gal(b1-4)Glc
# Procedure, shortened: as §1
# [4] = target: Neu5Ac(a2-3)[GalNAc(b1-4)]Gal(b1-4)GlcNAc
# Procedure, shortened: as §1
# [5] = target: Neu5Ac(a2-3)[GalNAc(b1-4)]Gal(b1-4)GlcNAc(b1-3)GalNAc
# Procedure, shortened: as §1
# [6] = target: Neu5Ac(a2-3)[Neu5Ac(a2-6)]GalNAc
# Procedure, shortened: as §1
# Neu5Ac(a2-6)Gal = target: Neu5Ac(a2-6)Gal
# Procedure, shortened: as §1
# [7] = target: Neu5Ac(a2-6)Gal(b1-3)GlcNAc(b1-3)[Gal(b1-4)GlcNAc(b1-6)]Gal(b1-4)Glc
# Procedure, shortened: as §1
# Neu5Ac(a2-6)Gal(b1-4)Glc = target: Neu5Ac(a2-6)Gal(b1-4)Glc
# Procedure, shortened: as §1
# [8] = target: Neu5Ac(a2-6)Gal(b1-4)GlcNAc
# Procedure, shortened: as §1
# [9] = target: Neu5Ac(a2-6)Gal(b1-4)GlcNAc(b1-2)Man
# Procedure, shortened: as §1
# [10] = target: Neu5Ac(a2-6)Gal(b1-4)GlcNAc(b1-2)Man(a1-3)Man(b1-4)GlcNAc(b1-4)GlcNAc
# Procedure, shortened: as §1
# [11] = target: Neu5Ac(a2-6)Gal(b1-4)GlcNAc(b1-2)Man(a1-3)[Gal(b1-4)GlcNAc(b1-2)Man(a1-6)]Man(b1-4)GlcNAc(b1-4)GlcNAc
# Procedure, shortened: as §1
# [12] = target: Neu5Ac(a2-6)Gal(b1-4)GlcNAc(b1-2)Man(a1-3)[GlcNAc(b1-2)Man(a1-6)]Man(b1-4)GlcNAc(b1-4)GlcNAc
# Procedure, shortened: as §1
# [13] = target: Neu5Ac(a2-6)Gal(b1-4)GlcNAc(b1-2)Man(a1-3)[GlcNAc(b1-4)][Neu5Ac(a2-6)Gal(b1-4)GlcNAc(b1-2)Man(a1-6)]Man(b1-4)GlcNAc(b1-4)GlcNAc
# Procedure, shortened: as §1
# [14] = target: Neu5Ac(a2-6)Gal(b1-4)GlcNAc(b1-2)Man(a1-3)[Man(a1-6)]Man(b1-4)GlcNAc(b1-4)GlcNAc
# Procedure, shortened: as §1
# [15] = target: Neu5Ac(a2-6)Gal(b1-4)GlcNAc(b1-2)Man(a1-3)[Neu5Ac(a2-3)Gal(b1-4)GlcNAc(b1-2)Man(a1-6)]Man(b1-4)GlcNAc(b1-4)GlcNAc
# Procedure, shortened: as §1
# [16] = target: Neu5Ac(a2-6)Gal(b1-4)GlcNAc(b1-2)Man(a1-3)[Neu5Ac(a2-6)Gal(b1-4)GlcNAc(b1-2)Man(a1-6)]Man(b1-4)GlcNAc(b1-4)GlcNAc
# Procedure, shortened: as §1
# [17] = target: Neu5Ac(a2-6)Gal(b1-4)GlcNAc(b1-2)Man(a1-3)[Neu5Ac(a2-6)Gal(b1-4)GlcNAc(b1-2)Man(a1-6)]Man(b1-4)GlcNAc(b1-4)[Fuc(a1-6)]GlcNAc
# Procedure, shortened: as §1
# [18] = target: Neu5Ac(a2-6)Gal(b1-4)GlcNAc(b1-2)Man(a1-6)Man(b1-4)GlcNAc(b1-4)GlcNAc
# Procedure, shortened: as §1
# [19] = target: Neu5Ac(a2-6)Gal(b1-4)GlcNAc(b1-2)Man(a1-6)[Gal(b1-4)GlcNAc(b1-2)Man(a1-3)]Man(b1-4)GlcNAc(b1-4)GlcNAc
# Procedure, shortened: as §1
# [20] = target: Neu5Ac(a2-6)Gal(b1-4)GlcNAc(b1-2)Man(a1-6)[GlcNAc(b1-2)Man(a1-3)]Man(b1-4)GlcNAc(b1-4)GlcNAc
# Procedure, shortened: as §1
# [21] = target: Neu5Ac(a2-6)Gal(b1-4)GlcNAc(b1-2)Man(a1-6)[Man(a1-3)]Man(b1-4)GlcNAc(b1-4)GlcNAc
# Procedure, shortened: as §1
# [22] = target: Neu5Ac(a2-6)Gal(b1-4)GlcNAc(b1-2)[Neu5Ac(a2-6)Gal(b1-4)GlcNAc(b1-4)]Man(a1-3)[GlcNAc(b1-4)][Neu5Ac(a2-6)Gal(b1-4)GlcNAc(b1-2)[Neu5Ac(a2-6)Gal(b1-4)GlcNAc(b1-6)]Man(a1-6)]Man(b1-4)GlcNAc(b1-4)GlcNAc
# Procedure, shortened: as §1
# [23] = target: Neu5Ac(a2-6)Gal(b1-4)GlcNAc(b1-2)[Neu5Ac(a2-6)Gal(b1-4)GlcNAc(b1-4)]Man(a1-3)[GlcNAc(b1-4)][Neu5Ac(a2-6)Gal(b1-4)GlcNAc(b1-4)Man(a1-6)]Man(b1-4)GlcNAc(b1-4)GlcNAc
# Procedure, shortened: as §1
# [24] = target: Neu5Ac(a2-6)Gal(b1-4)GlcNAc(b1-2)[Neu5Ac(a2-6)Gal(b1-4)GlcNAc(b1-6)]Man(a1-6)[Neu5Ac(a2-6)Gal(b1-4)GlcNAc(b1-2)Man(a1-3)][GlcNAc(b1-4)]Man(b1-4)GlcNAc(b1-4)GlcNAc
# Procedure, shortened: as §1
# [25] = target: Neu5Ac(a2-6)Gal(b1-4)GlcNAc(b1-3)Gal(b1-3)GlcNAc
# Procedure, shortened: as §1
# [26] = target: Neu5Ac(a2-6)Gal(b1-4)GlcNAc(b1-3)Gal(b1-4)GlcNAc
# Procedure, shortened: as §1
# [27] = target: Neu5Ac(a2-6)Gal(b1-4)GlcNAc(b1-3)Gal(b1-4)GlcNAc(b1-2)Man(a1-3)[Neu5Ac(a2-6)Gal(b1-4)GlcNAc(b1-3)Gal(b1-4)GlcNAc(b1-2)Man(a1-6)]GalNAc
# Procedure, shortened: as §1
# [28] = target: Neu5Ac(a2-6)Gal(b1-4)GlcNAc(b1-3)Gal(b1-4)GlcNAc(b1-3)Gal(b1-4)GlcNAc
# Procedure, shortened: as §1
# [29] = target: Neu5Ac(a2-6)Gal(b1-4)GlcNAc(b1-3)Gal(b1-4)GlcNAc(b1-3)Gal(b1-4)GlcNAc(b1-2)Man(a1-3)[Neu5Ac(a2-6)Gal(b1-4)GlcNAc(b1-3)Gal(b1-4)GlcNAc(b1-3)Gal(b1-4)GlcNAc(b1-2)Man(a1-6)]GalNAc
# Procedure, shortened: as §1
# [30] = target: Neu5Ac(a2-6)Gal(b1-4)GlcNAc(b1-3)Gal(b1-4)GlcNAc(b1-3)GalNAc
# Procedure, shortened: as §1
# [31] = target: Neu5Ac(a2-6)Gal(b1-4)GlcNAc(b1-3)Gal(b1-4)GlcNAc(b1-3)[Neu5Ac(a2-6)Gal(b1-4)GlcNAc(b1-3)Gal(b1-4)GlcNAc(b1-6)]GalNAc
# Procedure, shortened: as §1
# [32] = target: Neu5Ac(a2-6)Gal(b1-4)GlcNAc(b1-3)Gal(b1-4)GlcNAc(b1-6)[Gal(b1-3)]GalNAc
# Procedure, shortened: as §1
# [33] = target: Neu5Ac(a2-6)Gal(b1-4)GlcNAc(b1-3)Gal(b1-4)[Fuc(a1-3)]GlcNAc(b1-3)Gal(b1-4)[Fuc(a1-3)]GlcNAc
# Procedure, shortened: as §1
# [34] = target: Neu5Ac(a2-6)Gal(b1-4)GlcNAc(b1-3)GalNAc
# Procedure, shortened: as §1
binder,measurement,setting,value
B1,glycan array binding signal (z-score),[1],-0.302
same,glycan array binding signal (z-score),Neu5Ac(a2-3)GalNAc,-0.218
same,glycan array binding signal (z-score),[2],-0.153
same,glycan array binding signal (z-score),[3],-0.189
same,glycan array binding signal (z-score),[4],-0.198
same,glycan array binding signal (z-score),[5],-0.176
same,glycan array binding signal (z-score),[6],-0.213
same,glycan array binding signal (z-score),Neu5Ac(a2-6)Gal,-0.164
same,glycan array binding signal (z-score),[7],-0.017
same,glycan array binding signal (z-score),Neu5Ac(a2-6)Gal(b1-4)Glc,-0.217
same,glycan array binding signal (z-score),[8],-0.231
same,glycan array binding signal (z-score),[9],-0.214
same,glycan array binding signal (z-score),[10],-0.212
same,glycan array binding signal (z-score),[11],-0.217
same,glycan array binding signal (z-score),[12],-0.134
same,glycan array binding signal (z-score),[13],-0.186
same,glycan array binding signal (z-score),[14],-0.221
same,glycan array binding signal (z-score),[15],-0.094
same,glycan array binding signal (z-score),[16],-0.143
same,glycan array binding signal (z-score),[17],-0.151
same,glycan array binding signal (z-score),[18],-0.202
same,glycan array binding signal (z-score),[19],-0.017
same,glycan array binding signal (z-score),[20],-0.247
same,glycan array binding signal (z-score),[21],-0.157
same,glycan array binding signal (z-score),[22],-0.196
same,glycan array binding signal (z-score),[23],-0.246
same,glycan array binding signal (z-score),[24],-0.183
same,glycan array binding signal (z-score),[25],-0.116
same,glycan array binding signal (z-score),[26],-0.11
same,glycan array binding signal (z-score),[27],-0.071
same,glycan array binding signal (z-score),[28],-0.353
same,glycan array binding signal (z-score),[29],0.05
same,glycan array binding signal (z-score),[30],-0.238
same,glycan array binding signal (z-score),[31],-0.158
same,glycan array binding signal (z-score),[32],0.023
same,glycan array binding signal (z-score),[33],-0.125
same,glycan array binding signal (z-score),[34],-0.288
